Assay results reported in PubChem BioAssay AID938 (National Center for Advancing Translational Sciences (NCATS), 2007).
Screen size: about 73,000 compounds; about 1,800 (2.5%) were called active. The inconclusive results got no clear call from the source; some entries with a clear call stand among them for comparison. The call rests on the fitted dose curve; in most records, active means well fitted activation curve with a large enough effect; inconclusive means small, poorly fitted or top-dose-only effect; inactive means no such curve, though single readings can be large or run the other way. No potency is given beside an inconclusive call; the fits are too rough.

Assay: qHTS Assay for Agonists of the Thyroid Stimulating Hormone Receptor: Activators of Intracellular cAMP Concentrations in Parental HEK 293; further: nearly all actives have a fitted effect of over 55% in size; on activation: % of control where 0% means no effect
Conditions: parental HEK293 CNG cAMP sensor, membrane potential fluorescence; activation: at 57.1 µM (top of the series) unless noted
Method in brief: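 Parental HEK 293 cells stably expressing a modified CNG channel (no TSHR) report cAMP rise as membrane depolarization. Membrane potential dye with 100 uM RO 20-1724 was loaded for 60 min at room temperature, then compound added for 30 min; fluorescence read at 590 nm.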
Potency means the concentration at half of the fitted maximal effect; tags describe the fitted curve by direction and shape.

| SMILES | activation | Potency |
| --- | --- | --- |
| O=C(OCc1c(Cl)cccc1Cl)c1ccccn1 | inconclusive: 37.3% [activator] |  |
| Cn1c(C(=O)OCC(=O)NCCc2ccccc2)cc2sccc21 |  | inconclusive [activator, partial curve] |
| O=C(Cn1c(=O)n(CCCC(=O)NC2CCCC2)c(=O)c2ccccc21)NCCC1=CCCCC1 |  | inactive |
| COc1ccccc1CNc1ncncc1-c1ccc(C(=O)N(C)C)cc1 |  | inconclusive [activator, single point] |
| COc1cccc(-c2nc(S(=O)(=O)c3ccccc3)c(N3CCOCC3)o2)c1 |  | inconclusive [activator, single point] |
| Cc1cc(C)cc(OCC(=O)NCc2nc(-c3ccccc3)no2)c1 |  | inconclusive [activator, partial curve] |
| CC(C)(C)c1nc2ccccc2c2nnc(SCC(=O)NCc3ccco3)n12 |  | inconclusive [activator, partial curve] |
| O=C(NCC1CCCO1)c1ccccc1-c1nc(-c2ccc(Cl)cc2)no1 (stereo unspecified) |  | inactive |
| O=C(Nc1nc2ccccc2n1Cc1ccccc1)c1ccco1 |  | inconclusive [activator, single point] |
| CC1CCN(c2nnc(N)s2)CC1 |  | inconclusive [activator, single point] |
| C[C@@]1(CO)[C@H](O)CC[C@]2(C)[C@@H]1CC[C@H]1C[C@H]3C[C@]12CC[C@]3(O)COC(=O)CN | inactive: 3.53% [at 11.4 µM] |  |
| CCc1ccc(-c2nnn(Cc3nn[nH]n3)n2)cc1 |  | inactive |
| CCn1nnc(-c2ccccc2NC(=O)c2cc(OC)c(OC)c(OC)c2)n1 |  | inconclusive [activator, single point] |
| C[N+](C)(N)CCC[N+](C)(C)N | inactive: 2.43% [at 11.4 µM] |  |
| CCN(CC)c1ccc(/C=N/n2nnnc2N)c(O)c1 |  | inactive |
| COc1ccc(CNc2cc(C)nc3ncnn23)c(OC)c1 |  | active: 3.98 µM |
| Cc1ccc(C)c(-n2nnnc2SCC(=O)c2ccc3c(c2)NC(=O)CO3)c1 |  | inconclusive [activator, full curve, poor fit] |
| CCCN(CCC)CCCNS(=O)(=O)c1ccc2c(c1)oc(=O)n2C |  | inconclusive [activator, single point] |
| N#CCCn1c(=O)c(-c2cccs2)nc2cnc(OCc3ccccc3)nc21 |  | inactive |
| Cc1ccc2c(c1)N(CC(=O)Nc1ccc3c(c1)OCCO3)C(=O)CO2 |  | inconclusive [activator, single point] |
| O=C1Cc2ccccc2C(=O)N1CCc1ccccc1 |  | inactive |
| COc1ccc(OC)c(NC(=O)c2cc3sccc3n2C)c1 |  | active: 25.1 µM |
| Cc1ccc(C(=O)O)cc1[N+](=O)[O-] |  | inconclusive [activator, partial curve, poor fit] |

| SMILES | activation | Potency |
| --- | --- | --- |
| COc1ccccc1N1CCN(CC(=O)Nc2cccc(F)c2)CC1 |  | inconclusive [activator, single point] |
| CCOC(=O)c1sc(SCC(=O)Nc2ccc(N(C)C)cc2)nc1N |  | inactive |
| COc1ccc(O[C@H]2C=C[C@@H](c3ccccc3)O[C@H]2CO/N=C(/C)CCC(=O)OC[C@@H]2O[C@H](C#Cc3ccccc3)C=C[C@@H]2Oc2ccc(C)cc2)cc1 | inactive: 1.21% [at 11.4 µM] |  |
| CCC(C)(C)n1nnnc1C(c1ccccc1OC)N1CCSCC1 (stereo unspecified) |  | inconclusive [activator, full curve] |
| COc1ccc(N(CC(=O)O)S(=O)(=O)c2ccc(OC)c(OC)c2)cc1 |  | inconclusive [activator, single point] |
| CC(C)=C1C(=O)C(c2ccccc2)=C2CN3C(=O)N(CCc4ccccc4)C(=O)[C@]3(C)[C@H]21 |  | inconclusive [activator, partial curve] |
| COC(=O)N1CCC2(CCN(Cc3ccccc3)CC2)CC1 |  | inactive |
| Cc1cc(C)cc([N+](=O)[O-])c1 |  | inactive |
| N#Cc1cccc(-c2cncnc2NCc2cccs2)c1 |  | inconclusive [activator, partial curve] |
| COC(=O)CCCCCN1C(=O)NC(CC2CC2)C(C(=O)OCc2ccccc2)=C1C (stereo unspecified) |  | inconclusive [activator, single point] |
| CCOC(=O)c1ccccc1NC(=O)c1cc2sccc2n1C |  | inconclusive [activator, single point] |
| Cn1c(C(=O)N2CCCC(C(=O)NCCCc3ccccc3)C2)cc2sccc21 (stereo unspecified) |  | inconclusive [activator, partial curve] |
| Cc1ccc(OCC(=O)Nc2cccc(-c3nnc(-c4ccccc4)o3)c2)cc1 |  | inconclusive [activator, partial curve] |
| Clc1ccccc1C(Nc1ncccn1)Nc1ncccn1 | inactive: -1.16% [at 11.4 µM] |  |
| CCOC(=O)NCc1ccc(Cl)c(Cl)c1 |  | inconclusive [activator, single point] |
| O=C(C1CC1)N1CCN=C1SCc1cccc(F)c1 |  | inactive |
| COc1cccc(C2=NOC(C(=O)NCc3ccc(F)cc3)C2)c1 (stereo unspecified) |  | inconclusive [activator, full curve] |
| O=C(Nc1cccc(C(=O)N2CCOCC2)c1)c1cncc(Br)c1 |  | inconclusive [activator, single point] |
| Cn1c(NC(=O)c2ccccc2Br)cc(=O)n(C)c1=O |  | inactive |
| O=C(c1cc(-c2cccc(O)c2)on1)N1CCc2ccccc2C1 |  | inconclusive [activator, partial curve] |
| NOCC(=O)O |  | inconclusive [activator, single point] |
| CNc1ncnc2c1ncn2[C@@H]1O[C@H](CO)[C@@H](O)[C@@H]1O |  | inconclusive [activator, single point] |
| Cc1nc(NCc2ccccc2)c2nc(-c3ccccc3)n(CCN3CCCC3)c2n1 |  | inconclusive [activator, single point] |
